Test results taken from the supplement of paper PMC3334620.
Whole data set: some 33,000 sequences, median “E-score (-0.5 to 0.5)” near -0.054, cut for the highest 2% near 0.39. The list shows a part of the results.

These sequences were tested against Ylr278c (UniProt Q05854) (assay: PBM E-score (8-mer binding enrichment) (E-score (-0.5 to 0.5)); higher = stronger / more preferred TF binding; most listed sequences are background and not binding sites). Conditions: protein concentration: 200 nM; construct: GST-DNA-binding domain.
Outline: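 Detection of bound protein used fluorescent anti-GST, with scans normalised by masliner. The proteins were GST-tagged yeast transcription factors applied at about 100-200 nM to universal all-10-mer Agilent arrays made double-stranded by primer extension. Each ungapped eight-base word, pooled with its reverse complement, was scored with an E-score from the Universal PBM Analysis Suite.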

Sequence	PBM E-score
GAACACGC	0.152
CTGCTGAC	-0.19
CTAATCTA	-0.00091
GTCAGATA	-0.151
ACGCTCAC	0.00599
CTGATTGC	-0.0289
GATACAGC	0.0707
TCTTAAGA	-0.221
AAATCGGG	0.276
ATATCTAA	-0.121
CTCGGAGA	0.449
CTCCAATC	-0.0635
GCCCAACC	-0.0501
CAGACACG	-0.0553
ATATTGTC	0.0929
AAGAGCCT	-0.317
ATGCTAAG	-0.108
AACGTGTG	-0.353
ACGCACTC	-0.00638
AGTAGCAT	0.024
AAACTTGA	-0.171
AAGACTCA	-0.375
AGTTGCAA	0.0276
GCCCCCCA	-0.273

Sequence	PBM E-score
ACTTTTCT	-0.13
ATGCTGCA	-0.178
ACTGCCGA	0.189
CACACAAC	-0.0809
GCTACAGC	-0.144
GATTGGCC	0.0281
AAACAGTT	0.0452
CAATCACG	0.105
TGTAAGAA	-0.00864
TAACTAGA	0.038
AATAATGG	-0.0695
CGGTTATC	0.262
GGTAGATA	0.0517
ATAAACAG	-0.0729
AACCCGCT	0.182
ACTGAATA	-0.127
AGAGACCA	-0.294
AACGACTA	-0.117
TCCGGCAA	0.431
CGAGGTAA	0.0271
CTTAGGTA	-0.0818
AAATACTT	0.0145
GGCGTAAC	-0.0749
ATGATACA	-0.101

Sequence	PBM E-score
ACATACGC	0.0311
TCTCGTAA	0.0132
GTATTCAC	0.125
CCCAGTCG	0.0852
AAACGTAC	-0.115
ATGCTACG	-0.0841
AATTTCTG	-0.153
GAGCATAA	0.15
AAATTTAA	0.0331
ATACGTAG	-0.182
GTTCTGCA	-0.0984
CCGTGCTA	0.0858
ACTCAGCC	-0.145
CCATAGGC	-0.0663
ACGAGCTG	-0.16
CAAGCGCA	0.0985
CTTCTGAC	-0.258
ACATGAAC	-0.172
ATCACAGG	-0.301
TGCTCCAA	-0.0383
CCACCAAC	0.0769
TAAAGACA	-0.186
CGCCTCTC	-0.206
GAATGCTC	-0.0816

Sequence	PBM E-score
CAGGCTGA	-0.19
CTCATAAC	0.0253
ATGACAAT	-0.184
ACCGGCGT	0.3
TCGCTACA	-0.308
ATGAATGC	0.0522
ACTGCACT	-0.0612
CGCAAAAC	0.134
CTTGAGAC	-0.0789
CATGACCG	0.0297
CACGAATG	-0.176
ACGCCTTC	-0.0421
AGACCTCT	-0.198
ATAGGTAA	-0.178
AGTTAATA	0.0494
AGACAGCT	-0.155
CTCACCGC	-0.0877
GCACCCGC	0.234
AGGGTGAT	-0.198
CGAATCGC	0.0481
ATCCTGCG	-0.114
TCCTTCCA	-0.287
